{
  "source": "the supplement of paper PMC11417369",
  "note": "This is one part of the list.",
  "data": [
    {"test_system": "PfAP2-HC AP2 domain (GST-tagged)", "test": "gcPBM binding intensity (ln(normalized median fluorescence intensity)); higher = stronger DNA binding", "outline": "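GST-tagged P. falciparum DNA-binding domains produced in E. coli were incubated for 1 h on an Agilent 4 × 180k array of primer-extended double-stranded 36-bp intergenic genomic probes with negative controls. Binding intensity is the highest Masliner-normalised natural-log median intensity across replicate spots of either probe orientation, with bound protein detected by Alexa488 anti-GST antibody at 488 nm.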", "values": [
      {"sequence": "AAATATATTTTTAATAGTACAATATGAAAATTTCAT [XGTACX_site2562]", "gcPBM binding intensity (ln)": 9.47},
      {"sequence": "AAAAAAAAGGAAATAACACACATGTATATATTTATA [CACACA_site1606]", "gcPBM binding intensity (ln)": 9.84},
      {"sequence": "CACCATGTTAACAATACATGCATCACTATATAAATG [TGCATGCA_site36]", "gcPBM binding intensity (ln)": 9.72},
      {"sequence": "GTACACATATATATATATATATATATATATATATAT [CACACA_negctrl_site800]", "gcPBM binding intensity (ln)": 9.87},
      {"sequence": "TTTTTTTTTTTTTTTTGTACTCATACATACTATTAT [XGTACX_site989]", "gcPBM binding intensity (ln)": 9.39},
      {"sequence": "TTTTTATTATTTTAAAGTACTCTTTAGTAATTCCCT [XGTACX_site5863]", "gcPBM binding intensity (ln)": 9.51},
      {"sequence": "CACAGATAAATTAACACACACACACCGATATATATA [CACACA_site6049]", "gcPBM binding intensity (ln)": 10.5},
      {"sequence": "AAAAAACATACATACACACACATAAATATTTATATT [CACACA_site7300]", "gcPBM binding intensity (ln)": 10.8},
      {"sequence": "TTTTATTAATATTGCATGCACACTATATAATAATTG [CACACA_site1049]", "gcPBM binding intensity (ln)": 9.93},
      {"sequence": "CGGAAAAATTAAAGCACACAAAAAAAAATAAAAAAA [CACACA_site1133]", "gcPBM binding intensity (ln)": 10.1},
      {"sequence": "AATATTTCTTTAATTTGTACATATAAGGGAAAATAA [XGTACX_site6221]", "gcPBM binding intensity (ln)": 9.48},
      {"sequence": "ATTTCTTCTTTTTTTGTGAAACTGGAATATATATAT [XGTACX_negctrl_site527]", "gcPBM binding intensity (ln)": 9.47},
      {"sequence": "CTTAGGTGTTCATAGAGTACAAATAAAAAAATAAGA [XGTACX_site2294]", "gcPBM binding intensity (ln)": 9.67},
      {"sequence": "ATATATATTTTAATAACACACATATATTATATTATA [CACACA_site4387]", "gcPBM binding intensity (ln)": 9.6},
      {"sequence": "TCATTCTAAATATAAACACACATAAATAAATACATT [CACACA_site5788]", "gcPBM binding intensity (ln)": 9.83},
      {"sequence": "GGTGGTGGTGGGTGGGTGCTTCTATTATTATATTAT [GTGCAC_site9391]", "gcPBM binding intensity (ln)": 10.4},
      {"sequence": "GATGTTTCTATTTTAGTGCATTTTAAATAAATAAAT", "gcPBM binding intensity (ln)": 9.49},
      {"sequence": "ACGTTACATACATATACACACACATATATATATATA [CACACA_site8203]", "gcPBM binding intensity (ln)": 10.3},
      {"sequence": "TATATATATTATTATGCATGTAATAAAACAAATAAT [TGCATGCA_site625]", "gcPBM binding intensity (ln)": 9.66},
      {"sequence": "TATATTAAACCATGTAGTACCTTGAATAAATATTAT [XGTACX_site8254]", "gcPBM binding intensity (ln)": 9.51},
      {"sequence": "ATTATACCACCCGATATACACACTTGTAGACATCTT [CACACA_site7944]", "gcPBM binding intensity (ln)": 9.83},
      {"sequence": "AAAAAAAAATACATATGTACTTATGTATAATGTTGT [XGTACX_site8104]", "gcPBM binding intensity (ln)": 9.81},
      {"sequence": "TTTTTTTAATTAGTTTGTACATATTGTTATAATATA [XGTACX_site6294]", "gcPBM binding intensity (ln)": 9.66},
      {"sequence": "CATGTTATGATTCCATGTACTTATAGCATTAAAAAA [XGTACX_site8939]", "gcPBM binding intensity (ln)": 9.28},
      {"sequence": "AAGTTACAAAATCAAAAGGAAAAAATATAAAATAAT [CACACA_negctrl_site561]", "gcPBM binding intensity (ln)": 9.69}
    ]}
  ]
}
